Experimental findings from PubChem BioAssay AID1259411 (Chemical Carcinogenesis Research Information System (CCRIS), 2018) are described below.

The data set deals with rodent carcinogenicity bioassays, tumor incidence. The data set can be described thus: CCRIS carcinogenicity studies. The conditions noted are these: Species: Rat, Strain/Sex: Sprague-Dawley/Female (50/Group), Route: Oral, Dose: 0, 2, 10, 50 ppb in diet, continuous exposure from conception through PND 21, followed by control diet to 2 yr. From the text:
The CCRIS database contains chemical records with carcinogenicity, mutagenicity, tumor promotion, and tumor inhibition test results. It was developed by the National Cancer Institute (NCI). Data are derived from studies cited in primary journals, current awareness tools, NCI reports, and other sources. Test results have been reviewed by experts in carcinogenesis and mutagenesis.
CCRIS provides historical information from the years 1985 - 2011. It is no longer updated.
This is an archive assay for CCRIS carcinogenicity studies.

Structures are written as SMILES. “Also recorded” adds a separate entry of the source. The source holds more than one record for some entries. This is not the full list of results. The source may hold further records. No rule for the calls is given here. Values given together do not match, cause unknown; they may come from other doses, times, organisms or constructs than stated.

With `C#C[C@]1(O)CC[C@H]2[C@@H]3CCc4cc(O)ccc4[C@H]3CC[C@@]21C`, the carcinogen call was “inactive; negative (authors describe as equivocal evidence based on epithelial neoplasms (; also recorded: inactive; negative (authors describe as equivocal evidence based on stromal polyp (1/52, 7”.
